Here are results for 52 molecules from publication PMC12040169 (PLOS Biology, 2025).

The structures appear in SMILES notation. The list shows a part of the results.

The experiment has as its system T1, C. trachomatis L2/434/Bu expressing GFP (CTL2-GFP).
T1 construct: L2/434/Bu GFP intracellular growth in HeLa cells
The arrangement: species or system HeLa; C. trachomatis total inclusion area by high-content imaging, normalised to DMSO. Conditions: total inclusion area; 28.5 h, 10 µM; inhibitor. The method, boiled down: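 High-content imaging followed the bulk GFP/resorufin measurement: fixed, Hoechst-stained cells were scored for GFP inclusions and host nuclei per well. Total inclusion area and count served as growth proxies, nuclei number as the viability proxy. MIC calculation matched the bulk assay.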
`CC1CC(C)CN(C(=O)c2ccc(-n3ccnc3)c(-n3cccc3)c2)C1` (stereo not shown) [CBK285372]: the “% of control remaining” value stood at 87.3462.

On to `COc1ccc(CCCC(=O)Nc2cncc(OC3CCNCC3)n2)cc1OC` [CBK028437T], for which the “% of control remaining” value is given as 86.4214.

With `CS(=O)(=O)Nc1ccccc1C(=O)NCc1ccccn1` [CBK268494], the “% of control remaining” value worked out at 119.282. Turning to `COc1ccc2ccccc2c1CNc1ccc(N2CCOCC2)c(C(=O)O)c1` [CBK269376], the “% of control remaining” value was determined as 104.664. With `NS(=O)(=O)c1ccc(CNC(=O)c2cncc(-c3ccc(C(=O)N4CCOCC4)cc3)c2)cc1` [CBK158641], the “% of control remaining” value worked out at 71.255. With `CCn1cc(C(=O)O)c(=O)c2cc(F)c(N3CCN(C(=S)Nc4ccc5c(c4)OCO5)CC3)cc21` [CBK268027], the “% of control remaining” value amounted to 98.4026. In the case of `COC(=O)CCNc1n[nH]c(=O)[nH]c1=O` [CBK217927], the “% of control remaining” value worked out at 102.212. In the case of `COc1cc(CN2CCN(S(=O)(=O)c3ccc(F)cc3)CC2)cc(OC)c1O` [CBK264269G], the “% of control remaining” value came out at 101.816.

As to `O=C(Cn1cnc(-c2noc(-c3cccnc3)n2)c1)Nc1ccc(Cl)cc1` [CBK287822], the “% of control remaining” value was determined as 117.741. Regarding `CC(C)COc1ccccc1C(=O)NCCC(=O)O` [CBK033507], the “% of control remaining” value is 51.0342. For `O=C(CCn1cccn1)N1CCC(c2cc3ncccc3[nH]2)CC1` [CBK284457], the “% of control remaining” value is listed as 95.7087. To `N#C/C(=C/c1cn(CCC(N)=O)c2ccccc12)c1ccc2c(c1)OCO2` [CBK267319] belongs 104.506; to `CC(=O)N1Cc2ccccc2OC2(CCCN(C(=O)C3CC3)C2)C1` (stereo not shown) [CBK284991], 105.656; to `O=C(CC(C(=O)O)N1CCOCC1)Nc1ccc(Cl)cc1` (stereo not shown) [CBK267086], 120.425.

As to `Cc1nn(CC(=O)OC2CCCCC2)c(=O)c2cc3sccc3n12` [CBK284045], the “% of control remaining” value is reported as 85.3149. As for `CN(C)C(=O)c1cccc(-c2nccnc2NCc2cccc([N+](=O)[O-])c2)c1` [CBK036651], the “% of control remaining” value is 112.656.

As to `Cc1cccnc1NC(=S)NCc1ccco1` [CBK268907], the “% of control remaining” value was determined as 89.5513. As for `COC(=O)c1cccc2c3c([nH]c12)CCCC3` [CBK000423], the “% of control remaining” value came to 89.0598. Turning to `O=S(=O)(Cc1ccccc1)Nc1nccnc1-c1cccs1` [CBK050766], the “% of control remaining” value came out at 83.1742.

Consider `O=C(O)CCCNS(=O)(=O)c1ccc(C2CCCCC2)cc1` [CBK299800], for which the “% of control remaining” value was determined as 58.0567. Turning to `CCCc1n[nH]c(Cc2c(Cl)cccc2Cl)c1C(=O)OCC` [CBK113275], the “% of control remaining” value is 76.0804. In the case of `CCOC(=O)C1CCN(S(=O)(=O)c2ccc(NC(=O)N3CCCC3)cc2)CC1` [CBK269823] it was 88.657; in that of `Cc1ccc(C23CC4CC(CC(NC(=O)NC(Cc5ccccc5)C(=O)O)(C4)C2)C3)cc1` (stereo not shown) [CBK267423], 94.9243; in that of `CC(C)c1ccc(N2C(=O)N[C@@H]3CCN(C(=O)COc4ccccc4)[C@@H]3C2=O)cc1` [CBK289288], 102.051. To `O=C(O)CCC(=O)N1N=C2C(=Cc3ccc(F)cc3)CCCC2C1c1ccc(F)cc1` (stereo not shown) [CBK296066] belongs 106.396. On to `COc1cc(CNc2cc(C(=O)O)ccc2C)cc(Br)c1OC` [CBK269679], for which the “% of control remaining” value is 96.7858. In the case of `COCc1nnc(NS(=O)(=O)c2ccc(C)cc2)s1` [CBK045523] it was 109.614; in that of `CN1CCN(C(=O)c2ccc(-c3cnc(OCC4CCN(C(=O)OC(C)(C)C)CC4)nc3)cn2)CC1` [CBK170021], 86.3274; in that of `O=C1N(C2CCCCC2)CC2C(c3ccccc3)ONC12O` (stereo not shown) [CBK021700], 37.3614. As to `Cc1nn(Cc2nnc(-c3cccs3)o2)c(C)c1Br` [CBK010809], the “% of control remaining” value stood at 80.5189. Consider `S=C(Cc1csc2ccccc12)NC1CCCCC1` [CBK023515], for which the “% of control remaining” value is listed as 78.6192.

On to `CCc1nn(CC(=O)N(C)C)c(=O)c2cc3sccc3n12` [CBK284031], for which the “% of control remaining” value came out at 85.9605. For the molecule `Cc1ccc2c(c1)cc(C)c1nn(CC(=O)NC3CC3)c(=O)n12` [CBK283873], the “% of control remaining” value came out at 96.2508. Consider `O=C(Cc1cccs1)N1CCC(c2nnc(-c3ccccc3)c(-c3ccccc3)n2)CC1` [CBK286283], for which the “% of control remaining” value is on record as 111.272. As to `CCNc1nccnc1-c1cnc(OC)nc1OC` [CBK088587], the “% of control remaining” value stood at 57.2616.

Turning to `O=C(Oc1ccc2c(c1)OCO2)c1cc(S(=O)(=O)N2CCOCC2)c(Cl)cc1Cl` [CBK269709], the “% of control remaining” value is 93.9548. In the case of `c1cnc(N2CCCC2)c(OC2CCNC2)n1` (stereo not shown) [CBK115284] it was 120.759; in that of `O=C(Cc1ccc(Cl)cc1)Nc1cccc(C(=O)Nc2ccccc2C(=O)O)c1` [CBK264750], 100.873. With `O=C(O)CCC(CCC(=O)O)C(=O)O` [CBK260994], the “% of control remaining” value is listed as 95.847. As for `OCCCNc1cncc(-c2ccc(F)cc2F)n1` [CBK065851], the “% of control remaining” value is recorded as 134.188.

Regarding `CCCn1cc(CNC(=O)c2cccc(S(=O)(=O)N3CCCC3)c2)cn1` [CBK307095], the “% of control remaining” value came out at 15.9219.

As for `O=C(O)COc1cccc2nsnc12` [CBK019749], the “% of control remaining” value came out at 100.012. For the molecule `CCCS(=O)(=O)NC[C@H]1C[C@@H]2CCN1C[C@@H]2c1cc(-c2ccccc2)nn1C` [CBK289095], the “% of control remaining” value worked out at 109.387. With `Clc1ccc(-n2ncc3c(NCc4ccccc4)ncnc32)cc1` [CBK287355], the “% of control remaining” value came out at 91.8004. For the molecule `O=C(O)COc1ccc(C=C2C(=O)c3ccccc3C2=O)cc1Cl` [CBK263857], the “% of control remaining” value came to 117.071.

For `COc1cc(F)cc(OC2CCNCC2)c1NC(=O)Cc1c[nH]c2ccccc12` [CBK050246T], the “% of control remaining” value stood at 86.0255.

Consider `CCn1c(SCC(=O)O)nnc1-c1c[nH]c2ccccc12` [CBK287089], for which the “% of control remaining” value is 90.3596.

For the molecule `O=C(O)c1sc2ncccc2c1NS(=O)(=O)c1cc(Cl)sc1Cl` [CBK050650], the “% of control remaining” value was 104.822. On to `Cc1ccc(Cc2cnc(NC(=O)NC3CCOC(C)(C)C3)s2)cc1F` (stereo not shown) [CBK304139], for which the “% of control remaining” value turned out to be 78.4599.

With `CCOC(=O)c1cnc2c(C)cc(C)cc2c1NCCCN(C)C` [CBK266021], the “% of control remaining” value is recorded as 119.632. In the case of `O=C(NCCn1nc(-c2ccco2)ccc1=O)C1CCCC1` [CBK283707] it was 97.7033. `CCC(=O)Nc1ccc(C(=O)N2CCN(c3ccccc3)CC2)cc1` [CBK307425]: the “% of control remaining” value stood at 59.1423.
